Measured values as given in PubChem BioAssay AID1345082 (National Center for Advancing Translational Sciences (NCATS), 2018).
Out of some 94,000 compounds screened, about 4,000 (4.3%) were called active. Inconclusive means that the source gave no clear call. Such entries were picked first, then a sample of the others. Calls come from the whole dose curve; as a rule, active = well fitted inhibition curve with a large enough effect; inconclusive = small, poorly fitted or top-dose-only effect; inactive = no such curve, though single readings can be large or run the other way. Potencies beside an inconclusive call are fits to weak or partial responses and may not hold up.

Experiment: Cytotoxic Profiling in NIH 3T3 Cell Line of Diverse Libraries Using Quantitative High-Throughput Screening; note: nearly all actives have a fitted effect of over 55% in size
Conditions: NIH 3T3 viability, CellTiter-Glo ATP luminescence, 48-72 h; activity change, negative = cytotoxicity: at 96.7 µM (top of the series); series mostly up to 96.7 µM
In short: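 Cells were seeded at 400 per well, treated with pin-transferred compound, and kept 48 or 72 hr at 37 °C before CellTiter-Glo addition and luminescence imaging of cellular ATP.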
% is set by controls: 0 for no effect and ±100 for the full control effect; potency is the fitted concentration of half-maximal effect; tags give direction and shape of the fitted curve.

Compound	Potency	activity change, negative = cytotoxicity	outcome
COc1ccc(CN2CCOC[C@H](Oc3ccccc3)C2)cc1	inconclusive: 100 µM [inhibitor, partial curve, poor fit]	–	–
O=C(Nc1ccc(Cl)cc1)N1CCC(C(=O)N2CCC(c3ccccc3)CC2)CC1	inconclusive: 44.7 µM [inhibitor, partial curve, poor fit]	–	–
O=C(NC1CCCC1)O[C@H]1COCCN(c2nc3ccccc3o2)C1	–	inactive: -10.8% [at 138 µM]	–
CC(=O)c1ccc(NC(=O)Cn2ccn3nc4c(c3c2=O)CCCC4)cc1	–	inactive: -2.12%	–
C=CCc1ccccc1OCCN(C)Cc1ccc(S(C)(=O)=O)cc1	inconclusive: 31.6 µM [inhibitor, partial curve, poor fit]	–	–
Cc1cc(C(=O)N2CCCCCCNC(=O)[C@@H]3C[C@@H](c4nc(Cc5ccccc5)no4)C[C@@H]32)n(C)n1	inconclusive: 44.7 µM [inhibitor, partial curve, poor fit]	–	–
Nc1ncccc1CN1CCc2ncc(C(=O)NCCOc3ccccc3)n2CC1	inconclusive: 44.7 µM [inhibitor, full curve]	–	–
COc1ccc(-c2cc(-c3cccc(CO)c3)cn3cncc23)cc1	active: 56.2 µM	–	–
CCOCCNC(=O)c1cc(-c2cccc(OC)c2)nc2c1cnn2C	inconclusive: 50.1 µM [inhibitor, single point]	–	–
COc1cccc(CCC(=O)N2CCN(c3cc(-c4ccccc4)[nH]n3)CC2)c1	inconclusive: 28.2 µM [inhibitor, partial curve]	–	–
N#Cc1ccc(-c2nc(C3CC(=O)N(c4ccc(F)cc4)C3)no2)cc1 (configuration not stated)	inconclusive: 39.8 µM [inhibitor, partial curve, poor fit]	–	–
O=C(NC1CCCc2c1[nH]c1c(Cl)cccc21)c1ccc2c(c1)OCO2 (configuration not stated)	inconclusive: 44.7 µM [inhibitor, partial curve, poor fit]	–	–
CC(C)CCNC(=O)N1CCCC(c2noc(COc3ccccc3)n2)C1 (configuration not stated)	inconclusive: 50.1 µM [inhibitor, partial curve, poor fit]	–	–
O=C(Nc1cc(F)c(F)c(F)c1)N1CC2CC(C1)[C@H]1CCCC(=O)N1C2 (some centres not stated)	–	–	inactive
COc1ccc(-c2cn3c(n2)N(C(=O)Cc2ccccc2)CCC3)cc1	inconclusive: 70.8 µM [inhibitor, single point]	–	–
CSc1ccc(-c2cccc(C(=O)NCC(=O)NCCCc3ccccc3)c2)cc1	inconclusive: 44.7 µM [inhibitor, partial curve, poor fit]	–	–
COc1cc(NC(=O)Cn2c(-c3ccc(F)cc3)nc(C)cc2=O)cc(OC)c1	inconclusive: 44.7 µM [inhibitor, partial curve, poor fit]	–	–
CCCCC1C(=O)N(C)CCN1c1nc2c(s1)c(C)nn2C (configuration not stated)	–	inactive: -11.4%	–
COc1cccc(CN2CCCOCCNC(=O)CC2)c1	–	inactive: -0.484%	–
COc1cccc(CN2CCCC(Cc3ncc(C)n3Cc3ccc(F)cc3)C2)c1 (configuration not stated)	inconclusive: 50.1 µM [inhibitor, partial curve, poor fit]	–	–
CCNc1ncnc2sc3c(c12)CCN(Cc1ccco1)C3	inconclusive: 50.1 µM [inhibitor, partial curve, poor fit]	–	–

Compound	Potency	activity change, negative = cytotoxicity	outcome
COCc1nc(CCNC(=O)c2cnn3c(C)c(Cc4ccccc4Cl)c(C)nc23)no1	inconclusive: 2.82 µM [inhibitor, full curve, poor fit]	–	–
O=C(CCc1cccnc1)N1CCCC(CCc2cccc(F)c2)C1 (configuration not stated)	inconclusive: 39.8 µM [inhibitor, full curve]	–	–
Cc1nn(CC(=O)NCc2ccc(N(C)C)cc2)c(=O)c2nc(C(C)C)sc12	–	–	inactive
O=C(c1cnn2cccnc12)N(Cc1ccncc1)Cc1cccc(OCCc2ccc(F)cc2)c1	inconclusive: 70.8 µM [inhibitor, single point]	–	–
CC(=O)c1cc(CN2CCOC(CCCc3ccccc3)C2)cs1 (configuration not stated)	–	inactive: -26.8%	–
CCN1C(=O)C2(CCN(S(=O)(=O)c3cccc(C(F)(F)F)c3)CC2)c2ccccc21	inconclusive: 44.7 µM [inhibitor, partial curve, poor fit]	–	–
O=C(NCCc1ccc(F)cc1)C1CCCN1C(=O)c1cccc(-c2ccccn2)c1 (configuration not stated)	–	inactive: -22.2%	–
Cc1ccsc1[C@@H]1CCN(Cc2cccn2-c2cccnc2)C[C@H]1O	inconclusive: 39.8 µM [inhibitor, full curve]	–	–
COc1ccc(CN2C(=O)[C@@H]3C[C@@H](CN3C3CCCC3)Oc3ccccc32)cc1	inconclusive: 100 µM [inhibitor, partial curve, poor fit]	–	–
O=C(Cc1cccc(F)c1)N1CCC2(CC1)NC(=O)N(Cc1ccccc1)C2=O	inconclusive: 56.2 µM [inhibitor, partial curve, poor fit]	–	–
COCCOc1ccc2c(n1)CCN(C(=O)CC1CCCCC1)C2	inconclusive: 31.6 µM [inhibitor, partial curve, poor fit]	–	–
COC[C@@H]1CN(Cc2cccc(C#N)c2)C[C@H]1c1ccncc1	inconclusive: 50.1 µM [inhibitor, partial curve, poor fit]	–	–
Cc1ccc(NC(=O)N2CCC(c3noc(COCC4CC4)n3)CC2)cc1F	inconclusive: 44.7 µM [inhibitor, partial curve, poor fit]	–	–
Cn1nc(N2CCC(NS(=O)(=O)c3ccc4c(c3)CCC4)CC2)ccc1=O	inconclusive: 44.7 µM [inhibitor, partial curve, poor fit]	–	–
Cc1ccccc1CN1CC[C@H](c2nc3ncccc3[nH]2)C1	inconclusive: 126 µM [inhibitor, partial curve, poor fit]	–	–
COCC(=O)NC[C@H]1CCN(Cc2ccc(F)c(OC)c2)C[C@H]1N(C)C	–	inactive: -12.9%	–
CCC(C)NC(=O)c1cc(-c2ccccc2OC)nc2c1cnn2C (configuration not stated)	–	inactive: -26.3%	–
Cc1noc([C@@H]2CC(F)(F)CN2C(=O)c2nn(C)c3ccccc23)n1	–	inactive: -9.65%	–
COCC(=O)Nc1ccc(-c2noc([C@@H]3CCCN3C)n2)cn1	–	inactive: 1.49% [at 174 µM]	–
COc1ccc(C2(C(=O)N3CCC4(CC3)C(OC)CN4c3cccc(F)c3)CC2)cc1 (configuration not stated)	inconclusive: 44.7 µM [inhibitor, partial curve, poor fit]	–	–
O=C1[C@@H]2C[C@@H](CN2Cc2ccc3ccccc3n2)Oc2ccccc2N1Cc1ccccc1	inconclusive: 56.2 µM [inhibitor, partial curve, poor fit]	–	–

Compound	Potency	activity change, negative = cytotoxicity	outcome
O=C(NC1CCCN(c2ccc3nnc(-c4ccccc4)n3n2)C1)c1ccc(Cl)nc1 (configuration not stated)	inconclusive: 39.8 µM [inhibitor, partial curve]	–	–
O=C(c1nc2sccn2c1-c1cccnc1)N1CCOCC1	–	inactive: -5.06% [at 138 µM]	–
Cc1noc2c(-c3cn[nH]c3)cc(-c3cccc(C(F)(F)F)c3)nc12	active: 25.1 µM	–	–
O=C(Nc1cc(F)ccc1F)N1CCCC(Cn2c(C3CC3)nc3cccnc32)C1 (configuration not stated)	inconclusive: 70.8 µM [inhibitor, single point]	–	–
O=C(NCCc1cccs1)c1cc2n(n1)CC(c1ccc3c(c1)OCO3)OC2 (configuration not stated)	inconclusive: 44.7 µM [inhibitor, partial curve, poor fit]	–	–
CN1Cc2nc(-c3ccc4c(c3)OCO4)ccc2OCC1=O	inconclusive: 79.4 µM [inhibitor, partial curve, poor fit]	–	–
COCCCNC(=O)c1cn2cc(-c3ccc(C(F)(F)F)cc3)sc2n1	inconclusive: 10 µM [inhibitor, full curve, poor fit]	–	–
Cn1c(CN2CCOC[C@H]2c2ncc(-c3ccc(Cl)cc3)[nH]2)nc2ccccc21	inconclusive: 56.2 µM [inhibitor, partial curve, poor fit]	–	–
O=C(C1CCN(S(=O)(=O)c2cccc(C(F)(F)F)c2)CC1)N1CCC(c2ccccc2)CC1	inconclusive: 20 µM [inhibitor, full curve]	–	–
Cc1ccc(Nc2ccnc(N3CCCN(C(=O)N(C)C)C3)n2)cc1	inconclusive: 56.2 µM [inhibitor, partial curve, poor fit]	–	–
Cc1ccc(-n2c(C3CCN(C(=O)c4cc(C)cc(C)c4)CC3)n[nH]c2=O)cc1	inconclusive: 6.31 µM [inhibitor, full curve, poor fit]	–	–
Cc1ccc(NC(=O)N2CCc3[nH]c4ccc(F)cc4c3C2)cc1C	inconclusive: 70.8 µM [inhibitor, single point]	–	–
COc1ccc(C(=O)N[C@@H]2C=C[C@@H](c3c(C)nn(-c4ccc(C)c(Cl)c4)c3C)C2)cc1	inconclusive: 50.1 µM [inhibitor, partial curve, poor fit]	–	–
COc1ccc(-c2nn(-c3ccccc3)cc2CN2C[C@@H](C)O[C@@H](C)C2)c(F)c1	–	inactive: -29.3%	–
COc1ccc(-c2ccc(C(=O)NCC(F)F)c(Cl)c2)nn1	inconclusive: 100 µM [inhibitor, single point]	–	–
COc1ccc(-n2nc(C)c([C@H]3C=C[C@@H](OC(=O)N[C@H](C)c4ccccc4)C3)c2C)cc1	inconclusive: 28.2 µM [inhibitor, full curve, poor fit]	–	–
CC(=O)N1CCN(c2nc3c(s2)CC(C(=O)NCc2cccc(Cl)c2)CC3)CC1 (configuration not stated)	–	inactive: -30.5%	–
CCCc1cc(C(=O)N2CC[C@@H]3[C@@H](CCC(=O)N3CC(C)C)C2)ccn1	inconclusive: 89.1 µM [inhibitor, single point]	–	–
COCC(=O)N[C@H]1C[C@@H](Cc2cc(-c3ccccc3)on2)C1(C)C	inconclusive: 79.4 µM [inhibitor, partial curve, poor fit]	–	–
O=C1N(Cc2ccccc2)CCOC12CCN(Cc1cccc(F)c1)CC2	–	inactive: -22.7% [at 138 µM]	–
